SMILES strings stand for the structures. Some of the results follow. These are further read-outs of the screen, such as a control signal, another cell line or another target. No call is given for them.

These results are taken from PubChem BioAssay AID1745853 (National Center for Advancing Translational Sciences (NCATS), 2022).

Assay in all cases: Primary Screen for Target Class Profiling of Small Molecule Inhibitors of Methyltransferases
Assay [1] concerns the target Glycine N-methyltransferase (Homo sapiens) (UniProt Q14749). The note with it: purified enzyme, MTase-Glo SAH luminescence; measured here: GNMT inhibition; at 40 µM; stronger effect = lower value. Put shortly: (§1)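 Each enzyme was reacted with SAM and its substrate, with compounds tested once at 40 uM; SAH formed was read by MTase-Glo luminescence.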
Assay [2] addresses Guanidinoacetate N-methyltransferase (Homo sapiens) (UniProt Q14353). The note with it: purified enzyme, MTase-Glo SAH luminescence; measured here: GAMT inhibition; at 40 µM; stronger effect = lower value. An outline of the steps: as §1
Assay [3] concerns the target Histamine N-methyltransferase (Homo sapiens) (UniProt P50135). The note with it: purified enzyme, MTase-Glo SAH luminescence; measured here: HNMT inhibition; at 40 µM; stronger effect = lower value. Put shortly: as §1
In assay [4] the target is Nicotinamide N-methyltransferase (Homo sapiens) (UniProt P40261). The note with it: purified enzyme, MTase-Glo SAH luminescence; measured here: NNMT inhibition; at 40 µM; stronger effect = lower value. An outline of the steps:
as §1

Assay [5] deals with Phenylethanolamine N-methyltransferase (Homo sapiens) (UniProt P11086). The note with it: purified enzyme, MTase-Glo SAH luminescence; measured here: PNMT inhibition; at 40 µM; stronger effect = lower value. An outline of the steps:
as §1
% is scaled to controls: 0 for no effect and ±100 for the full control effect.

As to `Cc1c(Cl)cccc1NC(=O)N1CCn2cccc2C1Cc1ccccc1` (stereo not given), the activity change, negative = inhibition is 12.1% in assay [1]; 2.93% in assay [2]; 6.24% in assay [3]; -3.17% in assay [4]; 2.54% in assay [5].
In the case of `C=C1C[C@]23C[C@@]1(O)CC[C@H]2[C@@]12C=C[C@H](O)[C@@](C)(C(=O)O1)[C@H]2[C@@H]3C(=O)O`, the activity change, negative = inhibition in assay [1] is 4.45%; in assay [2], -0.673%; in assay [3], 6.04%; in assay [4], -9.56%; in assay [5] it was 2.66%.
The matching figures for `Cn1nc2n(c1=O)CCN(C(=O)c1ccc(F)cc1F)CC2`: 0.111%, -3.41%, 2.12%, 1.71% and 0.838%.
The matching figures for `CCC1c2ccc(C)n2CCN1C(=O)Nc1ccc(C)c(C)c1` (stereo not given): -4.04%, 1.71%, -2.79%, 1.85% and -3.46%.
On the same counts, the results for `Cc1cc(C)cc(NC(=O)Cn2nc3n(CC(C)C)c(=O)c4ccc(C(=O)NCC(C)C)cc4n3c2=O)c1` are 10.1%, 1.73%, 11.1%, 12.7% and 9.83%.
With `CC(C)Cn1c(=O)c2ccccc2n2c(SCC(=O)Nc3ccc4c(c3)OCCO4)nnc12`, the activity change, negative = inhibition in assay [1] is -12.1%; in assay [2] it was 2.01%; in assay [3], 4.54%; in assay [4] it was -11.3%; in assay [5] it was -0.73%.
For `CCOc1cc(C(C)(C)C)ccc1C1=N[C@@](C)(c2ccc(Cl)cc2)[C@@](C)(c2ccc(Cl)cc2)N1C(=O)N1CCN(CC(=O)N2CCOCC2)CC1`, the activity change, negative = inhibition in assay [1] is -4.22%; in assay [2], -8.35%; in assay [3] it was 8.3%; in assay [4], -32.3%; in assay [5], 2.3%.
Consider `CC(C)CCn1c(=O)c2ccc(C(=O)NCC(C)C)cc2n2c(=O)n(CC(=O)NC(C)(C)C)nc12`, for which the activity change, negative = inhibition in assay [1] is -4.82%; in assay [2], -0.642%; in assay [3], -0.215%; in assay [4] it was -10.3%; in assay [5] it was -1.57%.
The matching figures for `O=C1NC2(CCN([S+](=O)([O-])c3cccc(C(F)(F)F)c3)C2)COc2ccccc21` (stereo not given): -1.46%, 0.798%, -0.663%, -4.99% and -4.84%.
On the same counts, the results for `O=C(CCCn1nc(-c2ccccc2)c2ccccc21)N1CCN(c2ccc(F)cc2)CC1` are -1.84%, -2.47%, 5.16%, 5.42% and -2.41%.
The matching figures for `COCC1CN(C2CCC2)CC12CCN(C(=O)c1ccsc1)CC2` (stereo not given): -4.31%, -5.52%, -3.16%, -9.49% and -6.98%.
Take `COc1ccc(-c2[nH]nc3ncc(C(=O)N4CCC(c5ccccc5)CC4)nc23)c(C)c1`: the activity change, negative = inhibition is -45.5% in assay [1]; -38.9% in assay [2]; -55.3% in assay [3]; -37% in assay [4]; -41.1% in assay [5].
On the same counts, the results for `O=C(NCc1ccc(Cl)nc1)c1cc2cccnn2n1` are -8.51%, -9.22%, -4.85%, -17% and -14%.
For `CC1CCC(NC(=O)CCc2nnc3n(Cc4ccc(Cl)cc4)c(=O)c4ccccc4n23)CC1` (stereo not given), the activity change, negative = inhibition in assay [1] was -6.7%; in assay [2], 0%; in assay [3] it was 3.03%; in assay [4], -3.7%; in assay [5], -1.77%.
The matching figures for `CCCN1C(=O)c2c(C(=O)Nc3cc(F)ccc3F)ncn2CC1(C)C(=O)NCc1ccc(C)cc1` (stereo not given): -0.545%, 0%, 3.06%, 3.08% and 6.28%.
`COCc1nc(NCCc2nc(-c3ccccn3)no2)c2cnn(C)c2n1`: the activity change, negative = inhibition is -4.49% in assay [1]; -6.74% in assay [2]; -2.4% in assay [3]; -27.4% in assay [4]; -6.99% in assay [5].
